Measured values reported in US20260077041A1 (JIANGSU KANION PHARMACEUTICAL, published 2026).
Blank lines part the entries; values can stand above or below the binder they belong to.

Key:
TNFα [1] = biological target: T1, TNFα (human, UniProt P01375 fragment); assay: SPR (Biacore T200), protein A capture, first saturated with IL-17A, then TNFα as analyte
T1 construct: also called hTNF-α

TNFα [2] = biological target: T1, TNFα; assay: SPR (Biacore T200), protein captured on protein A chip, TNFα as analyte, multi-cycle
IL-17A [3] = biological target: T2, IL-17A (human, UniProt Q16552 24-155); assay: SPR (Biacore T200), protein captured on protein A chip, IL-17A as analyte, multi-cycle
T2 construct: also called hIL-17A

IL-17A [4] = biological target: T2, IL-17A; assay: SPR (Biacore T200), protein A capture, first saturated with TNFα, then IL-17A as analyte
T2 sequence (Q16552 24-155 limits assumed): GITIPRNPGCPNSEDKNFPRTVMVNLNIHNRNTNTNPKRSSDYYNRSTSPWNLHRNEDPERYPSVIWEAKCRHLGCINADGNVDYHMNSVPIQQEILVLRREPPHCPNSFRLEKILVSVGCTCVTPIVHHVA

T1 sequence (P01375 77-233 limits assumed): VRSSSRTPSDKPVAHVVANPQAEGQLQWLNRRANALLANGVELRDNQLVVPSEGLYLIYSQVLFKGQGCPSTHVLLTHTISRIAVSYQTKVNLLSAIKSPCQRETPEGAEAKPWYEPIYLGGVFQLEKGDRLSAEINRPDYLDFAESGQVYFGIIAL

Kd (TNFα [1]): 0.0171 nM
koff (TNFα [1]): 9.49e-05 s⁻¹
kon (TNFα [1]): 5.54e+06 M⁻¹ s⁻¹
Kd (TNFα [2]): 0.0357 nM
koff (TNFα [2]): 7.82e-05 s⁻¹
kon (TNFα [2]): 2.19e+06 M⁻¹ s⁻¹
Kd (IL-17A [3]): 0.00637 nM
koff (IL-17A [3]): 3.28e-05 s⁻¹
kon (IL-17A [3]): 5.16e+06 M⁻¹ s⁻¹
Kd (IL-17A [4]): 0.00716 nM
koff (IL-17A [4]): 2.6e-05 s⁻¹
kon (IL-17A [4]): 3.64e+06 M⁻¹ s⁻¹
B1: No. 5 protein (Fc fusion)
chain: REKRDSVCPQGKYIHPQNNSICCTKCHKGTYLYNDCPGPGQDTDCRECESGSFTASENHLRHCLSCSKCRKEMGQVEISSCTVDRDTVCGCRKNQYRHYWSENLFQCFNCSLCLNGTVHLSCQEKQNTVCTCHAGFFLRENECVSCSNCKKSLECTKLCL[human IgG4 Fc with S228P (EU numbers) not written out]GGGGSGGGGSGGGGSGGGGSQVQLVQSGAEVKKPGSSVKVSCKASGYSFTDYHIHWVRQAPGQGLEWMGVINPMYGTTDYNQRFKGRVTITADESTSTAYMELSSLRSEDTAVYYCARYDYFTGTGVYWGQGTLVTVSSGGGGSGGGGSGGGGSDIVMTQTPLSLSVTPGQPASISCRSSRSLVHSRGNTYLHWYLQKPGQSPQLLIYKVSNRFIGVPDRFSGSGSGTDFTLKISRVEAEDVGVYYCSQSTHLPFTFGQGTKLEIKRT
notes: also called No. 5 fusion protein; protein of No. 5

Kd (TNFα [1]): 0.0776 nM
koff (TNFα [1]): 0.000505 s⁻¹
kon (TNFα [1]): 6.52e+06 M⁻¹ s⁻¹
Kd (TNFα [2]): 0.119 nM
koff (TNFα [2]): 0.000259 s⁻¹
kon (TNFα [2]): 2.18e+06 M⁻¹ s⁻¹
Kd (IL-17A [3]): 0.00627 nM
koff (IL-17A [3]): 6.39e-05 s⁻¹
kon (IL-17A [3]): 1.02e+07 M⁻¹ s⁻¹
Kd (IL-17A [4]): 0.00821 nM
koff (IL-17A [4]): 4.76e-05 s⁻¹
kon (IL-17A [4]): 5.8e+06 M⁻¹ s⁻¹
B2: No. 7 protein (Fc fusion)
chain: QVQLVQSGAEVKKPGSSVKVSCKASGYSFTDYHIHWVRQAPGQGLEWMGVINPMYGTTDYNQRFKGRVTITADESTSTAYMELSSLRSEDTAVYYCARYDYFTGTGVYWGQGTLVTVSSGGGGSGGGGSGGGGSDIVMTQTPLSLSVTPGQPASISCRSSRSLVHSRGNTYLHWYLQKPGQSPQLLIYKVSNRFIGVPDRFSGSGSGTDFTLKISRVEAEDVGVYYCSQSTHLPFTFGQGTKLEIKRT[human IgG4 Fc with S228P (EU numbers) not written out]GGGGSGGGGSGGGGSGGGGSREKRDSVCPQGKYIHPQNNSICCTKCHKGTYLYNDCPGPGQDTDCRECESGSFTASENHLRHCLSCSKCRKEMGQVEISSCTVDRDTVCGCRKNQYRHYWSENLFQCFNCSLCLNGTVHLSCQEKQNTVCTCHAGFFLRENECVSCSNCKKSLECTKLCL
modifications: Disulfide-linked homodimer through the IgG4 hinge; one chain given. Glycosylated.
notes: Odd-numbered construct, contains sTNFRI; expressed in Expi293; used after protein A purification only; also called protein of No. 7

Kd (TNFα [1]): 0.0182 nM
koff (TNFα [1]): 0.000103 s⁻¹
kon (TNFα [1]): 5.7e+06 M⁻¹ s⁻¹
Kd (TNFα [2]): 0.0381 nM
koff (TNFα [2]): 0.000123 s⁻¹
kon (TNFα [2]): 3.23e+06 M⁻¹ s⁻¹
Kd (IL-17A [3]): 0.00868 nM
koff (IL-17A [3]): 9.57e-05 s⁻¹
kon (IL-17A [3]): 1.1e+07 M⁻¹ s⁻¹
Kd (IL-17A [4]): 0.0059 nM
koff (IL-17A [4]): 5.09e-05 s⁻¹
kon (IL-17A [4]): 8.64e+06 M⁻¹ s⁻¹
B3: No. 3 protein (Fc fusion)
heavy: QVQLVQSGAEVKKPGSSVKVSCKASGYSFTDYHIHWVRQAPGQGLEWMGVINPMYGTTDYNQRFKGRVTITADESTSTAYMELSSLRSEDTAVYYCARYDYFTGTGVYWGQGTLVTVSSASTKGPSVFPLAPCSRSTSESTAALGCLVKDYFPEPVTVSWNSGALTSGVHTFPAVLQSSGLYSLSSVVTVPSSSLGTKTYTCNVDHKPSNTKVDKRV[human IgG4 Fc with S228P (EU numbers) not written out]GGGGSGGGGSGGGGSGGGGSREKRDSVCPQGKYIHPQNNSICCTKCHKGTYLYNDCPGPGQDTDCRECESGSFTASENHLRHCLSCSKCRKEMGQVEISSCTVDRDTVCGCRKNQYRHYWSENLFQCFNCSLCLNGTVHLSCQEKQNTVCTCHAGFFLRENECVSCSNCKKSLECTKLCL
light: DIVMTQTPLSLSVTPGQPASISCRSSRSLVHSRGNTYLHWYLQKPGQSPQLLIYKVSNRFIGVPDRFSGSGSGTDFTLKISRVEAEDVGVYYCSQSTHLPFTFGQGTKLEIKRTVAAPSVFIFPPSDEQLKSGTASVVCLLNNFYPREAKVQWKVDNALQSGNSQESVTEQDSKDSTYSLSSTLTLSKADYEKHKVYACEVTHQGLSSPVTKSFNRGEC
modifications: IgG-like tetramer of two heavy fusion chains and two light chains; one of each given. Glycosylated.
notes: Odd-numbered construct, contains sTNFRI; expressed in Expi293; also called protein of No. 3

Kd (TNFα [1]): 0.0615 nM
koff (TNFα [1]): 0.000592 s⁻¹
kon (TNFα [1]): 9.62e+06 M⁻¹ s⁻¹
Kd (TNFα [2]): 0.0535 nM
koff (TNFα [2]): 0.000274 s⁻¹
kon (TNFα [2]): 5.12e+06 M⁻¹ s⁻¹
Kd (IL-17A [3]): 0.00717 nM
koff (IL-17A [3]): 7.74e-05 s⁻¹
kon (IL-17A [3]): 1.08e+07 M⁻¹ s⁻¹
Kd (IL-17A [4]): 0.00738 nM
koff (IL-17A [4]): 6.21e-05 s⁻¹
kon (IL-17A [4]): 8.41e+06 M⁻¹ s⁻¹
B4: No. 4 protein (Fc fusion)
heavy: QVQLVQSGAEVKKPGSSVKVSCKASGYSFTDYHIHWVRQAPGQGLEWMGVINPMYGTTDYNQRFKGRVTITADESTSTAYMELSSLRSEDTAVYYCARYDYFTGTGVYWGQGTLVTVSSASTKGPSVFPLAPCSRSTSESTAALGCLVKDYFPEPVTVSWNSGALTSGVHTFPAVLQSSGLYSLSSVVTVPSSSLGTKTYTCNVDHKPSNTKVDKRV[human IgG4 Fc with S228P (EU numbers) not written out]GGGGSGGGGSGGGGSGGGGSLPAQVAFTPYAPEPGSTCRLREYYDQTAQMCCSKCSPGQHAKVFCTKTSDTVCDSCEDSTYTQLWNWVPECLSCGSRCSSDQVETQACTREQNRICTCRPGWYCALSKQEGCRLCAPLRKCRPGFGVARPGTETSDVVCKPCAPGTFSNTTSSTDICRPHQICNVVAIPGNASMDAVCTSTSPTRSMAPGAVHLPQPVSTRSQHTQPTPEPSTAPSTSFLLPMGPSPPAEGSTGD
light: B3 light
modifications: IgG-like tetramer of two heavy fusion chains and two light chains; one of each given. Glycosylated.
notes: Even-numbered construct, contains sTNFRII; expressed in Expi293; also called protein of No. 4
